The supplement of paper PMC12217912
Some of the results follow. The full chains were built here from the parent and the listed change. Inactive controls read about 0.05.

B1: TEV protease; numbered along this chain (parent)
chain: MGESLFKGPRDYNPISSSICHLTNESDGHTTSLYGIGFGPFIITNKHLFRRNNGTLVVQSLHGVFKVKDTTTLQQHLVDGRDMIIIRMPKDFPPFPQKLKFREPQREERICLVTTNFQTKSMSSMVSDTSCTFPSGDGIFWKHWIQTKDGQCGSPLVSTRDGFIVGIHSASNFTNTNNYFTSVPKNFMELLTNQEAQQWVSGWRLNADSVLWGGHKVFMVKPEEPFQPVKEATQL

Variants of: B1
Assay: raw area under fraction-flipped curve 0-4 h after induction (AUC4h, not background-subtracted), DNA-recorder readout of cleavage of the substrate (dimensionless); higher = more cleavage of the substrate by the protease variant
Conditions: temperature: 34 °C; time window: 0-4 h after rhamnose induction
Description: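 In vivo DNA recorder in E. coli TOP10(DE3) ΔrhaA at 34 °C. Each TEVp single-site mutant (parent TEVp 0) is paired with a single-site variant of the 7-mer TEVs (canonical ENLYFQ|S). The substrate sits between flexible linkers in a Bxb1-sfGFP-TEVs-SsrA fusion, so cleavage stabilises Bxb1 and speeds flipping of a recombination array, read by NGS. The value is the raw area under the fraction-flipped curve over 0-4 h after rhamnose induction (AUC4h), with ≥20 reads per time point. It is not background-subtracted; inactive controls average about 0.047.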
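Also: Bxb1 expression induced with 0.2% (w/v) L-rhamnose at OD600 near 0.5, cultures sampled hourly, flipped fraction per protease–substrate barcode pair counted by paired-end Illumina sequencing.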

| Variant | area with substrate EALYFQS | area with substrate ECLYFQS | area with substrate EDLYFQS | area with substrate EELYFQS | area with substrate EFLYFQS | area with substrate EGLYFQS | area with substrate EHLYFQS | area with substrate EKLYFQS | area with substrate ELLYFQS | area with substrate EMLYFQS | area with substrate EPLYFQS | area with substrate EQLYFQS | area with substrate ESLYFQS | area with substrate EVLYFQS | area with substrate EYLYFQS | area with substrate EILYFQS | area with substrate ERLYFQS | area with substrate ETLYFQS | area with substrate EWLYFQS |
| --- | --- | --- | --- | --- | --- | --- | --- | --- | --- | --- | --- | --- | --- | --- | --- | --- | --- | --- | --- |
| MVESLFKGPRDYNPISSSICHLTNESDGHTTSLYGIGFGPFIITNKHLFRRNNGTLVVQSLHGVFKVKDTTTLQQHLVDGRDMIIIRMPKDFPPFPQKLKFREPQREERICLVTTNFQTKSMSSMVSDTSCTFPSGDGIFWKHWIQTKDGQCGSPLVSTRDGFIVGIHSASNFTNTNNYFTSVPKNFMELLTNQEAQQWVSGWRLNADSVLWGGHKVFMVKPEEPFQPVKEATQL [G2V] | 0.175 | 0.106 | 0.169 | 0.187 | 0.147 | 0.135 | 0.133 | 0.141 | 0.109 | 0.158 | 0.163 | 0.168 | 0.155 | 0.145 | 0.108 |  |  |  |  |
| MGESGFKGPRDYNPISSSICHLTNESDGHTTSLYGIGFGPFIITNKHLFRRNNGTLVVQSLHGVFKVKDTTTLQQHLVDGRDMIIIRMPKDFPPFPQKLKFREPQREERICLVTTNFQTKSMSSMVSDTSCTFPSGDGIFWKHWIQTKDGQCGSPLVSTRDGFIVGIHSASNFTNTNNYFTSVPKNFMELLTNQEAQQWVSGWRLNADSVLWGGHKVFMVKPEEPFQPVKEATQL [L5G] | 0.0956 |  | 0.14 | 0.105 | 0.11 | 0.0857 | 0.0958 | 0.133 | 0.0933 | 0.127 |  | 0.134 | 0.0901 | 0.101 |  | 0.11 |  |  |  |
| MGESSFKGPRDYNPISSSICHLTNESDGHTTSLYGIGFGPFIITNKHLFRRNNGTLVVQSLHGVFKVKDTTTLQQHLVDGRDMIIIRMPKDFPPFPQKLKFREPQREERICLVTTNFQTKSMSSMVSDTSCTFPSGDGIFWKHWIQTKDGQCGSPLVSTRDGFIVGIHSASNFTNTNNYFTSVPKNFMELLTNQEAQQWVSGWRLNADSVLWGGHKVFMVKPEEPFQPVKEATQL [L5S] | 0.11 | 0.151 |  | 0.135 |  | 0.1 |  |  |  | 0.137 | 0.122 |  | 0.113 | 0.108 |  | 0.113 | 0.113 |  |  |
| MGESLLKGPRDYNPISSSICHLTNESDGHTTSLYGIGFGPFIITNKHLFRRNNGTLVVQSLHGVFKVKDTTTLQQHLVDGRDMIIIRMPKDFPPFPQKLKFREPQREERICLVTTNFQTKSMSSMVSDTSCTFPSGDGIFWKHWIQTKDGQCGSPLVSTRDGFIVGIHSASNFTNTNNYFTSVPKNFMELLTNQEAQQWVSGWRLNADSVLWGGHKVFMVKPEEPFQPVKEATQL [F6L] | 0.128 | 0.0566 |  |  |  | 0.0417 |  |  |  | 0.0633 | 0.0757 | 0.0927 | 0.0618 | 0.0799 |  | 0.0569 |  | 0.0173 |  |
| MGESLFCGPRDYNPISSSICHLTNESDGHTTSLYGIGFGPFIITNKHLFRRNNGTLVVQSLHGVFKVKDTTTLQQHLVDGRDMIIIRMPKDFPPFPQKLKFREPQREERICLVTTNFQTKSMSSMVSDTSCTFPSGDGIFWKHWIQTKDGQCGSPLVSTRDGFIVGIHSASNFTNTNNYFTSVPKNFMELLTNQEAQQWVSGWRLNADSVLWGGHKVFMVKPEEPFQPVKEATQL [K7C] | 0.12 | 0.0959 | 0.15 |  |  |  |  | 0.0804 | 0.094 | 0.131 | 0.13 |  | 0.0895 | 0.0829 |  |  |  | 0.129 |  |
| MGESLFMGPRDYNPISSSICHLTNESDGHTTSLYGIGFGPFIITNKHLFRRNNGTLVVQSLHGVFKVKDTTTLQQHLVDGRDMIIIRMPKDFPPFPQKLKFREPQREERICLVTTNFQTKSMSSMVSDTSCTFPSGDGIFWKHWIQTKDGQCGSPLVSTRDGFIVGIHSASNFTNTNNYFTSVPKNFMELLTNQEAQQWVSGWRLNADSVLWGGHKVFMVKPEEPFQPVKEATQL [K7M] | 0.14 | 0.127 | 0.129 |  | 0.0918 |  |  |  | 0.0988 | 0.112 |  | 0.141 |  | 0.0979 |  |  |  |  |  |
| MGESLFKHPRDYNPISSSICHLTNESDGHTTSLYGIGFGPFIITNKHLFRRNNGTLVVQSLHGVFKVKDTTTLQQHLVDGRDMIIIRMPKDFPPFPQKLKFREPQREERICLVTTNFQTKSMSSMVSDTSCTFPSGDGIFWKHWIQTKDGQCGSPLVSTRDGFIVGIHSASNFTNTNNYFTSVPKNFMELLTNQEAQQWVSGWRLNADSVLWGGHKVFMVKPEEPFQPVKEATQL [G8H] | 0.0937 | 0.0727 |  |  |  |  |  | 0.112 | 0.0776 |  |  |  |  | 0.0649 |  |  |  |  |  |
| MGESLFKGERDYNPISSSICHLTNESDGHTTSLYGIGFGPFIITNKHLFRRNNGTLVVQSLHGVFKVKDTTTLQQHLVDGRDMIIIRMPKDFPPFPQKLKFREPQREERICLVTTNFQTKSMSSMVSDTSCTFPSGDGIFWKHWIQTKDGQCGSPLVSTRDGFIVGIHSASNFTNTNNYFTSVPKNFMELLTNQEAQQWVSGWRLNADSVLWGGHKVFMVKPEEPFQPVKEATQL [P9E] | 0.0664 | 0.0792 | 0.107 |  |  | 0.0946 |  | 0.0775 |  |  | 0.0964 | 0.0768 | 0.0889 | 0.0735 |  | 0.0589 | 0.101 |  | 0.0655 |
| MGESLFKGSRDYNPISSSICHLTNESDGHTTSLYGIGFGPFIITNKHLFRRNNGTLVVQSLHGVFKVKDTTTLQQHLVDGRDMIIIRMPKDFPPFPQKLKFREPQREERICLVTTNFQTKSMSSMVSDTSCTFPSGDGIFWKHWIQTKDGQCGSPLVSTRDGFIVGIHSASNFTNTNNYFTSVPKNFMELLTNQEAQQWVSGWRLNADSVLWGGHKVFMVKPEEPFQPVKEATQL [P9S] | 0.137 |  |  | 0.113 |  |  | 0.0934 |  |  |  | 0.121 | 0.0727 | 0.0871 |  |  |  |  |  | 0.0489 |
| MGESLFKGPADYNPISSSICHLTNESDGHTTSLYGIGFGPFIITNKHLFRRNNGTLVVQSLHGVFKVKDTTTLQQHLVDGRDMIIIRMPKDFPPFPQKLKFREPQREERICLVTTNFQTKSMSSMVSDTSCTFPSGDGIFWKHWIQTKDGQCGSPLVSTRDGFIVGIHSASNFTNTNNYFTSVPKNFMELLTNQEAQQWVSGWRLNADSVLWGGHKVFMVKPEEPFQPVKEATQL [R10A] | 0.128 |  |  |  | 0.0848 | 0.0764 |  | 0.0958 |  | 0.0911 |  |  | 0.105 | 0.13 | 0.0598 | 0.0945 | 0.0925 | 0.0829 | 0.102 |
